# Among all 39,000 compounds or so, about 220 (0.56%) showed activity. The list shows a part of the results.
# System: Escherichia coli K-12 BW25113
# Experiment: relative growth (OD600 normalised to plate interquartile mean) (fraction); higher = less growth inhibition, active = 0.2 or less
# Settings: 50 µM; LB; incubation time: overnight (16-24 h)
# 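Further: static incubation at 37 °C against the wild-type strain, values averaged over two biological replicates.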
row,Compound,relative growth
1,COc1cc2c(NC3CCN(C)CC3)nc(N3CCCN(C)CC3)nc2cc1OCCOCCN(C)C,inactive: 0.995
2,COc1ccccc1N1CCN(CCCNc2cc(=O)n(C)c(=O)n2C)CC1.Cl,inactive: 0.932
3,CC[C@@H](N)C12CC3CC(CC(C3)C1)C2,inactive: 0.976
4,C[C@@H]1CCCCO[C@@H](CN(C)S(=O)(=O)c2ccc(F)cc2)[C@H](C)CN([C@@H](C)CO)C(=O)c2cc(NC(=O)Cc3ccccc3)ccc2O1,inactive: 1.04
5,NS(=O)(=O)c1ccc2c(c1)COC2,inactive: 1.01
6,C[C@H]1CN([C@@H](C)CO)C(=O)Cc2cc(NC(=O)Cc3ccccc3)ccc2O[C@H]1CN(C)Cc1ccc(-c2ccccc2)cc1,inactive: 1.01
7,COCC(=O)N1[C@H](C(=O)N2CCN(C)CC2)[C@@H](CO)[C@@H]2Cn3c(ccc(C4=CCCC4)c3=O)[C@@H]21,inactive: 0.976
8,O=C1CN(c2ccccc2)C(=O)N1,inactive: 1.04
9,CC(C)NC(=O)N(C)C[C@H]1Oc2ccc(NS(=O)(=O)c3ccccc3)cc2CC(=O)N([C@H](C)CO)C[C@H]1C,inactive: 0.999
10,Nc1ncnc2c1ncn2CCO,inactive: 0.864
11,CC(C)NC(=O)Nc1ccc2c(c1)CC(=O)N([C@H](C)CO)C[C@@H](C)[C@@H](CN(C)Cc1ccc3c(c1)OCO3)O2,inactive: 0.986
12,C[C@@H]1CN([C@@H](C)CO)C(=O)Cc2cc(NC(=O)Cn3cnnn3)ccc2O[C@H]1CN(C)Cc1ccc(Oc2ccccc2)cc1,inactive: 0.959
13,O=c1cc(-c2ccccc2)oc2cc(O)cc(O)c12,inactive: 1.1
14,C[C@@H]1CN([C@@H](C)CO)C(=O)c2cccc(NC(=O)C3CCOCC3)c2O[C@H]1CN(C)Cc1ccc(C(=O)O)cc1,inactive: 0.986
15,C[C@@H]1CN([C@@H](C)CO)C(=O)c2cc(NC(=O)c3ccncc3)ccc2O[C@@H](C)CCCCO[C@@H]1CN(C)C(=O)NC1CCCCC1,inactive: 0.965
16,C[C@@H]1CN([C@@H](C)CO)C(=O)Cc2cc(NS(=O)(=O)c3ccccc3)ccc2O[C@@H]1CN(C)Cc1ccc(-c2ccccc2)cc1,inactive: 1
17,COc1cccc(CNC(=O)C[C@@H]2C=C[C@H](NC(=O)C3CCOCC3)[C@@H](CO)O2)c1,inactive: 0.979
18,C[C@@H]1CN([C@@H](C)CO)C(=O)c2cc(NS(=O)(=O)c3ccccc3)ccc2O[C@@H](C)CCCCO[C@H]1CN(C)C(=O)C1CCCCC1,inactive: 0.976
19,COc1cc(NC(=O)Cn2cnc3c2c(=O)n(C)c(=O)n3C)cc(OC)c1OC,inactive: 1.02
20,C[C@H]1CN([C@@H](C)CO)C(=O)c2cc(NS(=O)(=O)c3cn(C)cn3)ccc2O[C@@H]1CN(C)Cc1ccc2c(c1)OCO2,inactive: 1.01
21,C[C@H](CO)N1C[C@H](C)[C@H](CN(C)C(=O)Nc2cccc3ccccc23)Oc2c(NC(=O)NC3CCCCC3)cccc2C1=O,inactive: 1.01

row,Compound,relative growth
1,CC(O)C(=O)O.CCOc1ccc2nc3cc(N)ccc3c(N)c2c1,inactive: 0.285
2,CC(=O)N[C@H](CCCNC(=N)N)C(=O)N[C@H](CCCNC(=N)N)C(=O)N[C@H](CCCNC(=N)N)C(=O)N[C@H](CCCNC(=N)N)C(=O)N[C@H](CCCNC(=N)N)C(=O)N[C@H](CCCNC(=N)N)C(=O)N[C@H](CCCNC(=N)N)C(=O)N[C@H](CCCNC(=N)N)C(=O)N[C@H](CCCNC(=N)N)C(N)=O,inactive: 0.511
3,O=C(N[C@H]1CC[C@@H](CCNS(=O)(=O)c2ccc(F)cc2)O[C@@H]1CO)C1CC1,inactive: 0.975
4,CO[C@@H]1CN(C)C(=O)c2cc(NC(=O)Nc3ccc4c(c3)OCO4)ccc2OC[C@@H](C)N(C(C)=O)C[C@H]1C,inactive: 0.97
5,COC(=O)c1c(-c2c(Cl)cccc2Cl)noc1-c1cnn(-c2cccc(Cl)c2)c1C(F)(F)F,inactive: 1.01
6,COc1ccc(S(=O)(=O)N2C[C@@H](O)COC[C@@H]3O[C@@H](CC(=O)N[C@@H]4CCN(Cc5ccccc5)C4)CC[C@H]32)cc1,inactive: 0.999
7,CC1(C)[C@H]2CC[C@@]1(CS(N)(=O)=O)C(=O)C2,inactive: 0.999
8,Cc1cc(C(=O)Nc2cccc3c2O[C@@H](CN(C)S(=O)(=O)c2ccccc2)[C@@H](C)CN([C@@H](C)CO)C3=O)n(C)n1,inactive: 1.01
9,C[C@@H]1CCCCO[C@@H](CN(C)Cc2ccc(C(=O)O)cc2)[C@H](C)CN([C@H](C)CO)C(=O)c2cc(NS(=O)(=O)c3ccc(Cl)cc3)ccc2O1,inactive: 1.02
10,O=C(C[C@H]1C[C@@H]2c3cc(NC(=O)c4ccc5c(c4)OCO5)ccc3O[C@@H]2[C@@H](CO)O1)NCc1ccccn1,inactive: 0.953
11,C[C@@H]1CN([C@H](C)CO)C(=O)Cc2cc(NC(=O)Nc3ccccc3)ccc2O[C@H]1CN(C)Cc1ccc(C(F)(F)F)cc1,inactive: 1.08
12,C[C@@H]1CN([C@H](C)CO)C(=O)Cc2cc(NS(C)(=O)=O)ccc2O[C@@H]1CN(C)Cc1ccc(C(=O)Nc2ccccc2N)cc1,inactive: 1.02
13,C[C@@H]1CN([C@@H](C)CO)S(=O)(=O)c2ccc(C#Cc3ccccc3)cc2O[C@H]1CN(C)C(=O)CN(C)C,inactive: 1
14,O=C(C[C@@H]1CC[C@H]2[C@@H](COC[C@H](O)CN2C(=O)Nc2cccc(F)c2)O1)NCc1ccccc1Cl,inactive: 0.948
15,COc1ccccc1S(=O)(=O)N[C@H]1CC[C@@H](CCNC(=O)C2CC2)O[C@@H]1CO,inactive: 0.993
16,C[C@@H]1CCCCO[C@@H](CN(C)C(=O)Nc2ccc(C(F)(F)F)cc2)[C@@H](C)CN([C@H](C)CO)C(=O)c2cc(NC(=O)CCC(F)(F)F)ccc2O1,inactive: 1.04
17,CN1C(=O)c2cc(NC(=O)c3cccs3)ccc2OC[C@H]2O[C@H](CC(=O)NCCN3CCCCC3)CC[C@@H]21,inactive: 0.989
18,CN1CCC2(CC1)CN(C(=O)CNC(N)=O)CCCN2C,inactive: 0.972
19,C[C@H](CO)N1C[C@H](C)[C@@H](CN(C)C(=O)Nc2cccc(Cl)c2Cl)OCc2ccccc2-c2c(n(C)c3ccccc23)C1=O,inactive: 1.04
20,C[C@@H]1CN([C@@H](C)CO)C(=O)c2cc(NC(=O)Nc3ccc(C(F)(F)F)cc3)ccc2O[C@@H]1CN(C)Cc1ccccc1,inactive: 0.966
21,COc1ccc2c3c(n(c2c1)C)[C@H](CO)N(Cc1cc(cc(c1)OC)OC)C[C@]13CN(C1)C(=O)CN1CCOCC1,inactive: 1.01

row,Compound,relative growth
1,Cc1onc(NS(=O)(=O)c2ccccc2-c2ccc(-c3ncco3)cc2CN(C)C(=O)CC(C)(C)C)c1C,inactive: 1
2,COc1ccc(CN(C)C[C@H]2OCCCC[C@@H](C)Oc3ccc(NC(=O)Nc4ccc(F)cc4)cc3C(=O)N([C@H](C)CO)C[C@@H]2C)cc1,inactive: 0.97
3,CC(=O)OCC=C(C)CCC=C(C)CCC=C(C)CCC=C(C)CCC=C(C)CCC=C(C)CCC=C(C)CCC=C(C)CCC=C(C)C,inactive: 1.11
4,CCNC(=O)C[C@@H]1C=C[C@H](NC(=O)C2CCOCC2)[C@@H](CO)O1,inactive: 0.984
5,C[C@@H]1CCCCO[C@@H](CN(C)Cc2ccccc2)[C@@H](C)CN([C@@H](C)CO)C(=O)c2cc(NC(=O)Nc3ccc4c(c3)OCO4)ccc2O1,inactive: 0.975
6,CO[C@H]1C[C@@H]2CC[C@@H](C)[C@@](O)(O2)C(=O)C(=O)N2CCCC[C@H]2C(=O)O[C@H]([C@H](C)C[C@@H]2CC[C@@H](OCCO)[C@H](OC)C2)CC(=O)[C@H](C)/C=C(\C)[C@@H](O)[C@@H](OC)C(=O)[C@H](C)C[C@H](C)/C=C/C=C/C=C/1C,inactive: 1.01
7,COc1ccccc1-c1cccc(-c2nc(C(=O)NCc3ccncc3)cc3c2[C@H](CCO)N([S@@](=O)C(C)(C)C)C3)c1,inactive: 1.03
8,CNC[C@@H]1OCCCC[C@H](C)Oc2ccc(NS(=O)(=O)c3cn(C)cn3)cc2C(=O)N([C@@H](C)CO)C[C@@H]1C,inactive: 1.02
9,N=C(N)Nc1nc(=O)c2ccccc2s1,inactive: 1.05
10,COc1cccc(-c2ccc3c(c2)O[C@@H](CN(C)C(=O)C2CCOCC2)[C@H](C)CN([C@@H](C)CO)S3(=O)=O)c1,inactive: 0.987
11,C[C@H](CO)N1C[C@H](C)[C@@H](CN(C)C(=O)Nc2ccc(C(F)(F)F)cc2)Oc2ccc(NC(=O)Nc3ccccc3)cc2CC1=O,inactive: 0.884
12,C[C@@H]1CCCCO[C@@H](CN(C)S(=O)(=O)c2cn(C)cn2)[C@@H](C)CN([C@@H](C)CO)C(=O)c2cc(NC(=O)CCCN(C)C)ccc2O1,inactive: 1
13,CCNC(=O)NC(=O)COC(=O)CNC(=O)COc1ccccc1,inactive: 0.978
14,NCC[C@H]1CC[C@@H](NC(=O)c2ccccc2F)[C@H](CO)O1,inactive: 0.993
15,COc1ccc(-c2coc3cc(O)ccc3c2=O)c(OC)c1OC,inactive: 1.15
16,Cc1ccc(S(=O)(=O)N(C)C[C@H]2Oc3ccc(N(C)C)cc3CC(=O)N([C@@H](C)CO)C[C@H]2C)cc1,inactive: 1.01
17,COCC#Cc1cnc2c(c1)C(=O)N([C@H](C)CO)C[C@@H](C)[C@H](CN(C)C(=O)Nc1ccccc1OC)O2,inactive: 0.993
18,Cc1ccc(S(=O)(=O)Nc2ccc3c(c2)C(=O)N([C@@H](C)CO)C[C@@H](C)[C@@H](CN(C)C(=O)Nc2ccccc2)OCCCC[C@H](C)O3)cc1,inactive: 1.02
19,CC(C)C#Cc1cnc2c(c1)C(=O)N([C@@H](C)CO)C[C@H](C)[C@H](CN(C)C(=O)c1ccc3c(c1)OCO3)O2,inactive: 1
